{"source": "patent US6962909B2", "about": "“Treatment of neovascularization disorders with squalimine” (Genaera Corporation, priority 1995, dated 2005)", "tested_on": "L1210 lymphoblastic leukemia cells", "assay": "Mouse model of L1210 leukemia", "details": "by day 28", "description": "Because of its inhibitory activity on the growth of numerous cancer cells, compound 1436 was evaluated in a classical mouse model of leukemia (Baker et al., Cancer Res. 53, 1993, 3052-3057). C57B mice were inoculated with L1210 lymphoblastic leukemia cells at an inoculum that causes leukemia in 100% of animals. Mice received compound 1436 at 1, 5, 10 mg/kg every 3 days intraperitoneally.\nOf particular interest is the hematological profile determined during the course of treatment. Animals were treated with cisplatin and compound 1436.", "data": [{"smiles": "CC(CC[C@@H](OS(=O)(=O)O)C(C)C)[C@H]1CCC2C3C(CC[C@@]21C)[C@@]1(C)CC[C@H](NCCCNCCCCNCCCN)C[C@@H]1C[C@H]3O", "note": "(stereo partly shown) [Compound 1436]", "values": [{"measurement": "Hematological profile during treatment", "result": "near normal hematocrit, with evidence of a robust granulocyte count"}]}]}
